Whole data set: some 110,000 compounds, median “z-score” near -0.1, cut for the highest 2% near 2. This is one part of the list. Calls of active or inactive are those of the source.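 The calls were made as follows: active = z-score in the third read window above 3 or below -3; inactive = the rest.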
target: Metabotropic glutamate receptor 8 (Rattus norvegicus) (UniProt P70579); assay: mGluR8 Gi/Go-coupled signaling modulation – cell-based, rat, thallium flux, HTS, primary screen (AID 488969); conditions: HEK293 rat mGluR8, GIRK (G protein-gated inwardly rectifying potassium channel) thallium flux, FluoZin2; at 10 µM; stronger effect = higher value; submaximal glutamate (EC20) added with thallium
Chain of UniProt P70579 (P70579 whole entry, looked up): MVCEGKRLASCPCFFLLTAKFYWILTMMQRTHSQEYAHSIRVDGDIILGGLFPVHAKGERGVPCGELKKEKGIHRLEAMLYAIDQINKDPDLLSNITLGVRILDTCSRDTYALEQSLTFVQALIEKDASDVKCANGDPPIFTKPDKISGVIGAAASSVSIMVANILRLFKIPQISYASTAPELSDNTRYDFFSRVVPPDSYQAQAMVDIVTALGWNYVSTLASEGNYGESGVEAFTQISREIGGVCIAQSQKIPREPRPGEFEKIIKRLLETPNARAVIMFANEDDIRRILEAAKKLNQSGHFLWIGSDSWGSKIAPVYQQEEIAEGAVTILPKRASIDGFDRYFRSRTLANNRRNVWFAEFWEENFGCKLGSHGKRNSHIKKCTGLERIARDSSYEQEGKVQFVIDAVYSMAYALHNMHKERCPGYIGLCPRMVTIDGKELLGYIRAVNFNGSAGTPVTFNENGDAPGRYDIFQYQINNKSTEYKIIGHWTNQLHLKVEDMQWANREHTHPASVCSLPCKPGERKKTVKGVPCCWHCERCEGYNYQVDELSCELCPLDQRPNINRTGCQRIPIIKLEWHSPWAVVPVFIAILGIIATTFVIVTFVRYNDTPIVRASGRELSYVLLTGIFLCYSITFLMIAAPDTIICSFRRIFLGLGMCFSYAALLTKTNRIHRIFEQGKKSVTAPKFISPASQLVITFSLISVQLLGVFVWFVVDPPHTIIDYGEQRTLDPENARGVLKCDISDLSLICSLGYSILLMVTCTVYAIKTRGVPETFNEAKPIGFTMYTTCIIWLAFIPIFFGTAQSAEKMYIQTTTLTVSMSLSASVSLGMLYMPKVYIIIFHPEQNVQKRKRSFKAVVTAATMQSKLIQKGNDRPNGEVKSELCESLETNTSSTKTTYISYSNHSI

Row | Compound | z-score
1 | COc1ccc(C(NC(=O)c2ccc(F)cc2)c2ccccc2)cc1 (configuration not stated) | -0.0936
2 | N/C(=N\OS(=O)(=O)c1ccc(Cl)cc1)c1ccncc1 | -0.373
3 | O=C(NCc1ccccc1)c1ccc(Cn2cc(C(F)(F)F)ccc2=O)cc1 | -0.124
4 | Cn1c(=O)cc(OCCCC(=O)NCc2ccc3c(c2)OCO3)c2ccccc21 | active: 8.84
5 | O=C(O/N=C1/CCCc2occc21)c1ccccc1 | -0.154
6 | CCC(=O)CCC(=O)c1ccc2ccccc2c1 | 0.241
7 | COc1ccc(OCC(=O)NNC(=O)C(=O)N2CCCC2)cc1 | 0.0724
8 | CCCOc1ccc(CCc2n[nH]c(=S)n2Cc2ccccc2)cc1 | -0.306
9 | CC(C)CC(=O)Nc1nnc(SCC(=O)Nc2ccc3c(c2)OCO3)s1 | 0.256
10 | COc1ccc(N/C=C(\C#N)c2nc3ccccc3n2C)c(OC)c1 | 0.286
11 | CC1CCN(CCOCCOc2ccc(Cl)cc2Br)CC1 | 0.206
12 | COC(=O)c1scc(C)c1N/N=C(\C)c1cc(F)c(Cl)cc1F | -0.00092
13 | Nc1ccc2nc(-c3ccccn3)[nH]c2c1 | 0.037
14 | COc1cc(C2NC(=O)c3ccccc3O2)cc(OC)c1OC (configuration not stated) | 0.57
15 | CCC1Oc2ccc(C)cc2N(CC(=O)N(Cc2ccc(C)o2)C2CCCC2)C1=O (configuration not stated) | 0.943
16 | C=CCn1c(COc2ccc(CC)cc2)nnc1SCC(=O)N(C)C1CCS(=O)(=O)C1 (configuration not stated) | -0.465
17 | Cc1ccc(C(=O)NCC(=O)OCC(=O)Nc2ccc(Cl)cc2C(F)(F)F)cc1C | -0.629
18 | O=C(NCCc1ccccc1)c1ccc(Br)o1 | -0.459
19 | CCN(CC(=O)NC(C)C)C(=O)c1ccc(Cl)cc1 | -0.145
20 | O=C(O)CCCc1nc(-c2ccc(Cl)cc2)no1 | 0.187
21 | CC1CCN(C(=O)C(C)Sc2nc(-c3ccccc3)cc(C(F)(F)F)n2)CC1 (configuration not stated) | -0.911
22 | CCOC(=O)c1ccc(-c2ccc(/C=N/NC(=O)CN(c3cccc(C)c3)S(C)(=O)=O)o2)cc1 | -0.0521
23 | O=C(CN1C(=O)c2ccccc2C1=O)N1CCN(C2c3ccccc3-c3ccccc32)CC1 | -0.0989
24 | Cc1[nH]c2ccccc2c1C(=O)C(=O)N1CC=C(c2ccccc2)CC1 | -0.204

Row | Compound | z-score
25 | Cn1c(=O)cc(SCC(=O)N2CCN(c3ccccc3)CC2)c2ccccc21 | -0.379
26 | COc1ccccc1CNC(=O)C1CCCN1S(=O)(=O)c1cccc2cccnc12 (configuration not stated) | 0.0304
27 | O=C(Nc1ccc2c(c1)OCO2)N1CCN(c2cccc(C(F)(F)F)c2)CC1 | 0.62
28 | CCOc1ccc(NC(=O)C2CCN(C(=O)NC3CCCCC3)CC2)cc1 | -0.378
29 | CC1(C)NC(=O)N(CCCOc2ccccc2Br)C1=O | -0.224
30 | COc1cccc(C(=O)NCC(=O)OCC(=O)C(C)(C)C)c1 | 0.102
31 | CCCCNC(=O)c1sc2ncnc(N3CCc4ccccc4C3)c2c1C | -1.83
32 | Cc1ccc(-c2nnc(Nc3ccccc3)o2)cc1 | 1.1
33 | Cc1ccc(-c2cc(C(=O)NC3=NCCS3)c3cc(Br)ccc3n2)o1 | -0.551
34 | COC(=O)c1sccc1NC(=O)Nc1ccc(Cl)c(Cl)c1 | -0.163
35 | Cc1ccc(Sc2ccc(NC(=O)c3ccc(S(C)(=O)=O)cc3Cl)cc2)cc1 | 0.285
36 | O=C(NCc1ccco1)C1CCCN1S(=O)(=O)c1ccc2ccccc2c1 (configuration not stated) | -0.476
37 | CC1(C)C(=O)OC(C(=O)c2ccc(Cl)cc2)C(C)(C)C1=O (configuration not stated) | 0.189
38 | Cc1cccc(NC(=O)Cc2noc3ccccc23)c1 | 0.0168
39 | CCOC(=O)CC(=O)CSc1nc2c(C)c(C)ccc2cc1C | -0.0827
40 | CC(C)c1ccc(CNC(=O)CSCC(=O)Nc2ccc3ccccc3c2)cc1 | -0.115
41 | COc1ccc(C(=O)Nc2cc(OC)nc(OC)n2)cc1 | 0.144
42 | CCn1cc(Cl)c(C(=O)NNC(=O)CCn2nc(C)c([N+](=O)[O-])c2C)n1 | 0.129
43 | O=C(Oc1cccc(-n2cnnn2)c1)C1CCCCC1 | 0.757
44 | O=C(C1CCN(c2ncnc3c2sc2cccc(F)c23)CC1)N1CCOCC1 | active: -3.19
45 | CCn1c(SCc2cc(=O)[nH]c3ccccc23)nc2c1c(=O)n(C)c(=O)n2C | 0.0088
46 | Cc1sc2nc(SCC(=O)NCc3ccco3)n(C)c(=O)c2c1C | -0.982
47 | Cc1ccc(Nc2nc(N)nc(CSc3nccn3C)n2)cc1 | 1.08
48 | CC(Oc1ccc2c(-c3ccccc3)cc(=O)oc2c1)C(=O)O (configuration not stated) | 0.884

Row | Compound | z-score
49 | O=C(Nc1cccc(Cl)c1N1CCCCC1)c1ccc2c(c1)OCCO2 | -0.178
50 | Cc1ccc2occ(/C=C/C(=O)c3ccccc3O)c(=O)c2c1 | -0.0774
51 | O=C(NCCN1C(=O)S/C(=C\c2ccc(F)cc2)C1=O)C1CCN(S(=O)(=O)c2cccs2)CC1 | -0.242
52 | CCCNC(=O)c1cc2nc(-c3ccccc3)cc(C(F)(F)F)n2n1 | 0.138
53 | CC1(C(=O)NC2CCCCC2)CCC(=O)N1Cc1cccs1 (configuration not stated) | 0.262
54 | CCCCn1cnc2c(cnn2-c2ccc(Cl)cc2)c1=O | -1.12
55 | O=C(CSCc1ccccn1)Nc1ccccc1 | -0.336
56 | COC(=O)c1cc(NC(=O)Cc2ccccc2[N+](=O)[O-])ccc1Cl | 0.808
57 | O=S(=O)(/C=C/c1ccccc1)c1ccccc1 | -0.103
58 | Cc1ccc(-c2nnc(SCC(=O)N/N=C/c3ccc(C)s3)n2-c2ccccc2)cc1 | -1.03
59 | Cc1ccc(NC(=O)COC(=O)/C=C/c2ccco2)cc1S(=O)(=O)N(C)C | 1.23
60 | O=[N+]([O-])c1cn(Cc2ccc(Cl)cc2)cn1 | -0.364
61 | Cc1ccc(S(=O)(=O)N2CCN(CC(=O)Nc3ccc(N4CCOCC4)cc3)CC2)cc1C | -0.522
62 | Cc1cc(C)cc(NC(=O)C/C(N)=N/O)c1 | 0.116
63 | Cc1cccc(NC(=S)N2CCC(N(C)CC3CCCO3)CC2)c1C (configuration not stated) | 0.0113
64 | O=C(Cn1cnc2ccccc2c1=O)c1ccccc1 | 0.512
65 | COC(=O)c1cc(OC)c(OC)cc1NC(=O)C1CCC(=O)N1S(=O)(=O)c1ccc(C)cc1 (configuration not stated) | -0.0287
66 | CN1C(=O)CSc2ccc(NC(=O)NCc3ccco3)cc21 | -0.154
67 | CCNC(=O)CC1SC(=Nc2ccccc2C)N(C)C1=O (configuration not stated) | 0.548
68 | CCOc1ccc(OCCN2C(=O)NC3(CCCc4ccccc43)C2=O)cc1 (configuration not stated) | -0.374
69 | NC(=O)CSc1nnc(-c2cccnc2)n1Cc1ccccc1 | -0.124
70 | O=C(Oc1ccc2ccccc2c1Br)N1CCCCCC1 | -0.28
71 | CCCCC(=O)Nc1ccc2oc(-c3cccnc3)nc2c1 | 1.52
72 | O=C(COC(=O)c1ccncc1)NCc1ccccc1 | 0.0972
